Measured values from the supplement of paper PMC9174493.
Some of the results follow. Single values of this set are uncertain. Values with irradiation are relative to irradiated vehicle.

These compounds were tested on A549-Dual (assay: ISRE reporter (Lucia luciferase) activity, viability-corrected, relative to vehicle (fold change vs vehicle); higher = more activation of STING-IRF / NF-kB immune response reporter). Settings: 10 µM; irradiation: none.

Structure (SMILES) | ISRE reporter
Cc1cccc(C)c1NC(=O)c1cc(S(N)(=O)=O)c(Cl)cc1O [Xipamide] | 0.764
COc1cc(/C=C/C(=O)OC2CCC34CC35CCC3(C)C(C(C)CCC=C(C)C)CCC3(C)C5CCC4C2(C)C)ccc1O (stereo unspecified) [Gamma-Oryzanol] | 0.844
CCCCN(CCCC)CC(O)c1cc(Cl)cc2c1-c1ccc(Cl)cc1/C2=C/c1ccc(Cl)cc1 (stereo unspecified) [Lumefantrine] | 0.846
Cc1nc2n(c(=O)c1CCN1CCC(c3noc4cc(F)ccc34)CC1)CCCC2 [Risperidone] | 0.669
CCCCOc1cc(C(=O)OCCN(CC)CC)ccc1N.Cl [Oxybuprocaine HCl] | 0.866
CC12CCC3c4ccc(O)cc4CCC3C1CCC2=O (stereo unspecified) [Estrone] | 0.724
NCCC(O)C(=O)NC1CC(N)C(OC2OC(CN)C(O)C(O)C2O)C(O)C1OC1OC(CO)C(O)C(N)C1O.O=S(=O)(O)O.O=S(=O)(O)O (stereo unspecified) [Amikacin disulfate] | 1.07
O=C(NC(Cc1cc(=O)[nH]c2ccccc12)C(=O)O)c1ccc(Cl)cc1 (stereo unspecified) [Rebamipide] | 0.741
CC(C)n1c(/C=C/C(O)CC(O)CC(=O)[O-])c(-c2ccc(F)cc2)c2ccccc21.[Na+] (stereo unspecified) [Fluvastatin Sodium] | 1.9
Cc1cc(C(C)(C)C)c(O)c(C(C)(C)C)c1 [Butylated hydroxytoluene] | 0.777
O=c1[nH]cnc2nc[nH]c12 [Hypoxanthine] | 0.58
CC1CC(C(=O)O)C2CCC3(C)C(=CCC4C5(C)CCC(O)C(C)(C)C5CCC43C)C2C1C (stereo unspecified) [Ursolic Acid] | 2.05
CC(=O)c1ccccc1 [Acetophenone] | 0.705
CC#CC1(O)CCC2C3CCC4=CC(=O)CCC4=C3C(c3ccc(N(C)C)cc3)CC21C (stereo unspecified) [Mifepristone] | 1.05
CCc1nn(CCCN2CCN(c3cccc(Cl)c3)CC2)c(=O)n1CCOc1ccccc1.Cl [Nefazodone hydrochloride] | 0.495
COC1C(OC(C)=O)CC(=O)OC(C)C/C=C/C=C/C(OC2CCC(N(C)C)C(C)O2)C(C)CC(CC=O)C1OC1OC(C)C(OC2CC(C)(O)C(O)C(C)O2)C(N(C)C)C1O (stereo unspecified) [Acetylspiramycin (ASPM)] | 1.06

Structure (SMILES) | ISRE reporter
OCC1OC(O)CC(O)C1O [2-Deoxy-D-glucose] | 0.849
CCCNS(=O)(=O)Nc1ncnc(OCCOc2ncc(Br)cn2)c1-c1ccc(Br)cc1 [Macitentan] | 0.232
C#CC1(O)CCC2C3CCc4cc(O)ccc4C3CCC21C (stereo unspecified) [Ethinyl Estradiol] | 2.15
COC(=O)NC(C(=O)N1C2CCC(C2)C1c1nc2ccc(-c3ccc4c(c3)C(F)(F)c3cc(-c5cnc(C6CCC7(CC7)N6C(=O)C(NC(=O)OC)C(C)C)[nH]5)ccc3-4)cc2[nH]1)C(C)C (stereo unspecified) [Ledipasvir (GS5885)] | 1.24
CCOC(=O)C1=CC2(CC)CCCN3CCc4c(n1c1ccccc41)C32 (stereo unspecified) [Vinpocetine] | 0.615
CCCCC(CC)COC(=O)C(C#N)=C(c1ccccc1)c1ccccc1 (stereo unspecified) [Octocrylene] | 0.249
CC(C)NCC(O)COc1ccc(CCOCC2CC2)cc1.Cl (stereo unspecified) [Betaxolol HCl] | 0.743
Cc1cc2c(s1)Nc1ccccc1N=C2N1CCN(C)CC1 [Olanzapine] | 1.03
CS(=O)(=O)O.Cc1c(O)cccc1C(=O)NC(CSc1ccccc1)C(O)CN1CC2CCCCC2CC1C(=O)NC(C)(C)C (stereo unspecified) [Nelfinavir Mesylate] | 1.07
CC1NCc2cc(-c3ccc4c(=O)c(C(=O)O)cn(C5CC5)c4c3OC(F)F)ccc21 (stereo unspecified) [Garenoxacin] | 0.897
O=c1cc(CO)occ1O [Kojic acid] | 0.763
CO/N=C(\C(=O)NC1C(=O)N2C(C(=O)[O-])=C(CSc3nc(=O)c([O-])nn3C)CSC12)c1csc(N)n1.[Na+].[Na+] (stereo unspecified) [Ceftriaxone Sodium Trihydrate] | 0.793
CNC1CCCN(c2c(F)cc3c(=O)c(C(=O)O)cn(C4CC4)c3c2OC)C1.O.O (stereo unspecified) [Balofloxacin Dihydrate] | 1.04
CCCCCCCC/C=C\CCCCCCCC(=O)O [Oleic Acid] | 0.924
NS(=O)(=O)c1cc2c(cc1C(F)(F)F)NC(Cc1ccccc1)NS2(=O)=O (stereo unspecified) [Bendroflumethiazide] | 0.354
